# The list shows a part of the results.
# Target: no compound (DMSO)
# Test: log2 fold change of degron read counts, EGFP-low vs EGFP+ sorted cells; higher = lower degron-EGFP level without compound (poor expression or instability)
# Details: compound: DMSO control; 18 h
# 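Note: jurkat cells carrying a lentiviral library of mutant zinc finger degrons fused to EGFP plus mCherry, mCherry+ cells FACS sorted, degron abundance counted by next-generation sequencing.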
row,Sequence,log2 fold change of degron read counts
1,FCCNICGAGFTQKGNLLRHIKL,-0.467
2,FCCSVCGHWFTQKGNLLRHIKL,0.669
3,FSCSVCGHHFTQKGNLLRHIKL,0.0262
4,FYCDQCGAVFTQKGNLLRHIKL,-0.154
5,LQCPICGFFCTQKGNLLRHIKL,1.11
6,FKCDVCGAFFTQKGNLLRHIKL,-2.24
7,FICDVCGATFTQKGNLLRHIKL,-1.97
8,FECDQCGALFTQKGNLLRHIKL,-2.93
9,FMCPICGHCFTQKGNLLRHIKL,-0.523
10,FTCNVCGAEFTQKGNLLRHIKL,-2.9
11,FACSVCGHQFTQKGNLLRHIKL,-1.79
12,FQCSVCGHFFTQKGNLLRHIKL,-0.374
13,FACDQCGAEFTQKGNLLRHIKL,-1.83
14,FDCDQCGADFTQKGNLLRHIKL,-0.665
15,FMCEQCGAVFTQKGNLLRHIKL,-1.05
16,FLCEVCGAWFTQKGNLLRHIKL,-0.625
17,FQCDQCGAFFTQKGNLLRHIKL,-1.02
18,FECDICGARFTQKGNLLRHIKL,-1.78
19,FDCPICGREFTQKGNLLRHIKL,-0.457
20,FMCEICGAKFTQKGNLLRHIKL,-1.03
21,LYCPICGFDCTQKGNLLRHIKL,1.1
22,LNCEICGFHCTQKGNLLRHIKL,0.707
23,FACNQCGRCFTQKGNLLRHIKL,-0.212
24,FYCEICGRDFTQKGNLLRHIKL,-1.42
25,FACEVCGAVFTQKGNLLRHIKL,-1.54

row,Sequence,log2 fold change of degron read counts
1,LKCNQCGFICTQKGNLLRHIKL,-0.327
2,FGCPQCGAEFTQKGNLLRHIKL,-4.69
3,FGCPVCGASFTQKGNLLRHIKL,-0.177
4,FDCPQCGANFTQKGNLLRHIKL,-2.64
5,FFCDICGANFTQKGNLLRHIKL,-0.875
6,FHCDVCGAGFTQKGNLLRHIKL,-1.2
7,FFCEVCGATFTQKGNLLRHIKL,-1.49
8,FVCNVCGACFTQKGNLLRHIKL,-0.651
9,FGCPICGRTFTQKGNLLRHIKL,-0.352
10,FVCNQCGAKFTQKGNLLRHIKL,-0.684
11,FHCPQCGAWFTQKGNLLRHIKL,0.203
12,FNCPQCGANFTQKGNLLRHIKL,-1.3
13,FMCSVCGHMFTQKGNLLRHIKL,0.361
14,LHCNQCGFFCTQKGNLLRHIKL,1.78
15,FWCNQCGHAFTQKGNLLRHIKL,0.583
16,FHCDQCGAQFTQKGNLLRHIKL,-1.2
17,FNCEICGAYFTQKGNLLRHIKL,-0.595
18,FYCPQCGAKFTQKGNLLRHIKL,-0.295
19,LLCPICGFQCTQKGNLLRHIKL,0.772
20,FVCEICGHIFTQKGNLLRHIKL,-0.645
21,FNCDVCGAQFTQKGNLLRHIKL,-1.94
22,FYCNQCGHEFTQKGNLLRHIKL,-0.541
23,FKCDICGAVFTQKGNLLRHIKL,-1.58
24,FKCPICGHSFTQKGNLLRHIKL,-0.795
25,LRCNQCGFRCTQKGNLLRHIKL,1.34

# Reference: the supplement of paper PMC12645437, “Orthogonal IMiD-Degron Pairs Induce Selective Protein Degradation in Cells” (ACS Chemical Biology, 2025)
